Test [1] has as its target AXL (Homo sapiens, UniProt P30530). Nature of the test: Competition with Gas6 for binding to AXL.
Test [2] relates to LCLC-103H tumors. Nature of the test: LCLC-103H xenograft model (low Gas6, Example 5). Type of test: in vivo. Particulars: 3 mg/kg i.p., SCID mice. On the procedure: (§1) Tumor induction was performed by subcutaneous injection of 5×10^6 A431 or LCLC-103H tumor cells (both obtained from Leibniz-Institut—Deutsche Sammlung von Mikroorganismen and Zellkulturen GmbH (DSMZ)) in 200 μL PBS in the right flank of female SCID mice. Treatment was started 14-21 days after tumor cell inoculation, when the average tumor size was >100-200 mm^3 and distinct tumor growth was observed. Mice received a single injection or a total of 4 biweekly intraperitoneal injections with IgG1-AXL-vcMMAE ADCs or control antibody (unconjugated IgG1-b12), as indicated. Tumor volume was determined at least two times per week. Tumor volumes (mm^3) were calculated from caliper (PLEXX) measurements as: 0.52×(length)×(width)^2.

For test [3], the system named is A431 tumors. Nature of the test: A431 xenograft model (high Gas6). Type of test: in vivo. Particulars: 3 mg/kg i.p., SCID mice. On the procedure: as §1

B1: IgG1-AXL-061: anti-AXL antibody 061 (VH SEQ ID No 143, VL SEQ ID No 144) (antibody, V domains shown)
VH: QVQLVQSGAEVKKPGASVKVSCKASGYAFTGYGISWVRQAPGQGLEWIGWISAYNGNTNYVQNLQDRVTMTTDTSTSTAYMELRSLRSDDTAVYYCARDHISMLRGIIIRNYWGQGTLVTVSS
VL: [about 100 residues not printed]
modifications: IgG1 constant regions; homo sapiens
For the molecule B1, the “competition with Gas6 for binding to AXL” value in test [1] is “compete”.

B2: IgG1-AXL-061-vcMMAE: anti-AXL antibody 061 (Ig1 binder, competes with Gas6) conjugated to vcMMAE (conjugate)
VH: B1 VH
VL: [about 100 residues not printed]
As for B2, the “anti-tumor activity in the LCLC-103H xenograft model” value in test [2] is reported as “induced tumor regression”. The “anti-tumor activity on A431 tumors” value in test [3] was “did not show anti-tumor activity”.
